A collection of fitness landscapes (doi:10.1016/j.celrep.2020.107928)
In all, about 81,000 sequences were measured (“one-hybrid fitness for binding parS DNA”: median about -0.17, highest 2% from about 0.51 on). This is one part of the list.

B1: Caulobacter ParB omega fusion; a variant is named by its letters at X, in order, B8GW30 (parent)
chain: MESVVVGEPGMSEGRRGLGRGLSALLGEVDAAPAQAPGEQLGGSREAPIEILQRNPDQPRRTFREEDLEDLSNSIREKGVLQPILVRPSPDTAGEYQIVAGERAWRAAQRAGLKTVPIMVRELDDLAVLEIGIIENVQRADLNVLEEALSYKVLMEKFERTQENIAQTIGKSXSHVANXMRLLXLPDEVQSYLVSGELTAXHARAIAAAADPVALAKQIIEGGLSVRETEALARKAPNLSAGKSKGGRPPRVKDTDTQALESDLSSVLGLDVSIDHRGSTGTLTITYATLEQLDDLCNRLTRGI

Variants of: B1
Experiment: one-hybrid fitness for binding parS DNA (scaled: cognate 1, non-cognate 0); higher = stronger binding
Conditions: with parS DNA site
Procedure, shortened: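 Bacterial one-hybrid selection in E. coli USO rpoZ- hisB- pyrF- with a HIS3 reporter carrying the site 19 bp from the promoter, screening Caulobacter ParB libraries with four specificity codons randomised (NNS). Cells grew 48 hours at 37°C on M9-minus-histidine plus 0.1 mM IPTG and 5 mM 3-AT. Plasmids before and after selection were Illumina-sequenced, three replicate libraries pooled, and variants under 10 reads dropped. Fitness is the log change in variant-to-wild-type read ratio, rescaled to cognate 1, non-cognate 0.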

Variant	one-hybrid fitness for binding parS DNA
AASM	≤ 0.2
PTYK	≤ 0.2
RCCA	0.677
YNGP	≤ 0.2
GELR	≤ 0.2
WCST	≤ 0.2
YTYR	≤ 0.2
NEMF	≤ 0.2
HLED	≤ 0.2
NYIE	≤ 0.2
HSPT	≤ 0.2
RRSV	≤ 0.2
NQDG	≤ 0.2
HANF	≤ 0.2
CAVY	≤ 0.2
DDHT	≤ 0.2
PFPV	≤ 0.2
QSPY	≤ 0.2
LNAF	≤ 0.2
QPHK	≤ 0.2
DANY	≤ 0.2
YPCF	≤ 0.2
KSNR	≤ 0.2
GIET	≤ 0.2
YKEK	≤ 0.2
FDLG	≤ 0.2

Variant	one-hybrid fitness for binding parS DNA
CPAD	≤ 0.2
MGEF	≤ 0.2
WANF	≤ 0.2
PGTG	≤ 0.2
QYSP	≤ 0.2
AGWR	≤ 0.2
AAAI	≤ 0.2
NPHY	≤ 0.2
QEDE	≤ 0.2
RVMS	0.997
RFDT	0.693
PACG	≤ 0.2
MMTF	≤ 0.2
QSVK	≤ 0.2
TQCV	≤ 0.2
MQGT	≤ 0.2
QGKC	≤ 0.2
GPTH	≤ 0.2
GWYS	≤ 0.2
YKKF	≤ 0.2
SFRF	≤ 0.2
HQSA	≤ 0.2
GRQG	≤ 0.2
RQPA	≤ 0.2
DAEV	≤ 0.2
AATN	≤ 0.2

Variant	one-hybrid fitness for binding parS DNA
NFPR	≤ 0.2
VIML	≤ 0.2
PINF	≤ 0.2
TWTY	≤ 0.2
LGAS	≤ 0.2
RTGV	≤ 0.2
QWVI	≤ 0.2
PEHL	≤ 0.2
KEDR	≤ 0.2
NAMR	≤ 0.2
SKPR	≤ 0.2
DEGR	≤ 0.2
WMPH	≤ 0.2
WPPR	≤ 0.2
WKLR	≤ 0.2
CAAW	≤ 0.2
DKLR	≤ 0.2
AMMR	≤ 0.2
QACT	≤ 0.2
YFYS	≤ 0.2
RHSL	≤ 0.2
TEQA	≤ 0.2
SAYC	≤ 0.2
INWI	≤ 0.2
